Reference: the supplement of paper PMC8728848
The list shows a part of the results.

Key:
Experiment in all cases: glycan array binding signal (z-score within array); higher = stronger binding
Details in all cases: glycan notation: IUPAC condensed, linker removed
[1] = target: Fuc(a1-2)[Gal(a1-3)]Gal(b1-4)GlcNAc(b1-2)Man(a1-3)[Fuc(a1-2)[Gal(a1-3)]Gal(b1-4)GlcNAc(b1-2)Man(a1-6)]Man(b1-4)GlcNAc(b1-4)[Fuc(a1-6)]GlcNAc
Procedure, shortened: (§1)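 The binding signal is a Z-score computed within each array and averaged over linkers. Arrays of the same protein sequence at different concentrations or buffers were also averaged together. Data originate from 3228 arrays in the Consortium for Functional Glycomics database, kept only where the protein sequence was available.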

[2] = target: Fuc(a1-2)[Gal(a1-3)]Gal(b1-4)GlcNAc(b1-3)GalNAc
Procedure, shortened: as §1

[3] = target: Fuc(a1-2)[Gal(a1-3)]Gal(b1-4)GlcNAc(b1-3)[Fuc(a1-2)[Gal(a1-3)]Gal(b1-4)GlcNAc(b1-6)]GalNAc
Procedure, shortened: as §1

[4] = target: Fuc(a1-2)[Gal(a1-3)]Gal(b1-4)GlcNAc(b1-6)GalNAc
Procedure, shortened: as §1

[5] = target: Fuc(a1-2)[Gal(a1-3)]Gal(b1-4)[Fuc(a1-3)]Glc
Procedure, shortened: as §1

[6] = target: Fuc(a1-2)[Gal(a1-3)]Gal(b1-4)[Fuc(a1-3)]GlcNAc
Procedure, shortened: as §1

[7] = target: Fuc(a1-2)[Gal(a1-3)]Gal(b1-4)[Fuc(a1-3)]GlcNAc(b1-3)GalNAc
Procedure, shortened: as §1

[8] = target: Fuc(a1-2)[Gal(a1-4)]Gal(b1-4)GlcNAc
Procedure, shortened: as §1

[9] = target: Fuc(a1-2)[GalNAc(a1-3)]Gal
Procedure, shortened: as §1

[10] = target: Fuc(a1-2)[GalNAc(a1-3)]Gal(b1-3)GalNAc(a1-3)[Fuc(a1-2)]Gal(b1-4)GlcNAc
Procedure, shortened: as §1

[11] = target: Fuc(a1-2)[GalNAc(a1-3)]Gal(b1-3)GalNAc(b1-3)Gal(a1-4)Gal(b1-4)Glc
Procedure, shortened: as §1

[12] = target: Fuc(a1-2)[GalNAc(a1-3)]Gal(b1-3)GlcNAc
Procedure, shortened: as §1

[13] = target: Fuc(a1-2)[GalNAc(a1-3)]Gal(b1-3)GlcNAc(b1-2)Man(a1-3)[Fuc(a1-2)[GalNAc(a1-3)]Gal(b1-3)GlcNAc(b1-2)Man(a1-6)]Man(b1-4)GlcNAc(b1-4)GlcNAc
Procedure, shortened: as §1

[14] = target: Fuc(a1-2)[GalNAc(a1-3)]Gal(b1-3)GlcNAc(b1-2)Man(a1-3)[Fuc(a1-2)[GalNAc(a1-3)]Gal(b1-3)GlcNAc(b1-2)Man(a1-6)]Man(b1-4)GlcNAc(b1-4)[Fuc(a1-6)]GlcNAc
Procedure, shortened: as §1

[15] = target: Fuc(a1-2)[GalNAc(a1-3)]Gal(b1-3)GlcNAc(b1-3)GalNAc
Procedure, shortened: as §1

[16] = target: Fuc(a1-2)[GalNAc(a1-3)]Gal(b1-3)GlcNAc(b1-6)GalNAc
Procedure, shortened: as §1

[17] = target: Fuc(a1-2)[GalNAc(a1-3)]Gal(b1-4)Glc
Procedure, shortened: as §1

[18] = target: Fuc(a1-2)[GalNAc(a1-3)]Gal(b1-4)GlcNAc
Procedure, shortened: as §1

[19] = target: Fuc(a1-2)[GalNAc(a1-3)]Gal(b1-4)GlcNAc(b1-2)Man
Procedure, shortened: as §1

[20] = target: Fuc(a1-2)[GalNAc(a1-3)]Gal(b1-4)GlcNAc(b1-2)Man(a1-3)[Fuc(a1-2)[GalNAc(a1-3)]Gal(b1-4)GlcNAc(b1-2)Man(a1-6)]Man(b1-4)GlcNAc(b1-4)GlcNAc
Procedure, shortened: as §1

[21] = target: Fuc(a1-2)[GalNAc(a1-3)]Gal(b1-4)GlcNAc(b1-2)Man(a1-3)[Fuc(a1-2)[GalNAc(a1-3)]Gal(b1-4)GlcNAc(b1-2)Man(a1-6)]Man(b1-4)GlcNAc(b1-4)[Fuc(a1-6)]GlcNAc
Procedure, shortened: as §1

[22] = target: Fuc(a1-2)[GalNAc(a1-3)]Gal(b1-4)GlcNAc(b1-3)Gal(b1-4)GlcNAc
Procedure, shortened: as §1

[23] = target: Fuc(a1-2)[GalNAc(a1-3)]Gal(b1-4)GlcNAc(b1-3)Gal(b1-4)GlcNAc(b1-3)Gal(b1-4)GlcNAc
Procedure, shortened: as §1

[24] = target: Fuc(a1-2)[GalNAc(a1-3)]Gal(b1-4)GlcNAc(b1-3)GalNAc
Procedure, shortened: as §1

[25] = target: Fuc(a1-2)[GalNAc(a1-3)]Gal(b1-4)GlcNAc(b1-3)[Fuc(a1-2)[GalNAc(a1-3)]Gal(b1-4)GlcNAc(b1-6)]GalNAc
Procedure, shortened: as §1

[26] = target: Fuc(a1-2)[GalNAc(a1-3)]Gal(b1-4)GlcNAc(b1-6)GalNAc
Procedure, shortened: as §1

[27] = target: Fuc(a1-2)[GalNAc(a1-3)]Gal(b1-4)[Fuc(a1-3)]GlcNAc
Procedure, shortened: as §1

[28] = target: Fuc(a1-2)[GalNAc(a1-3)]Gal(b1-4)[Fuc(a1-3)]GlcNAc(b1-3)GalNAc
Procedure, shortened: as §1

[29] = target: Fuc(a1-2)[GalNAc(a1-4)]Gal(b1-4)GlcNAc
Procedure, shortened: as §1

[30] = target: Fuc(a1-2)[GalNAc(b1-3)]Gal
Procedure, shortened: as §1

B1: PX9937F-bfa-516-16-516 (Bacteroides fragilis) (protein)
chain: LDIDPTSSIADSNYWKTEAQFSTFNVGLHALLRECSFNFFLLGEPRADIYGDVPFGGEATQGMERLPFNTINKENTGISNFAGMYKVINQINLMIAKTKETTVLSEAGKNYYLGEAYGMRAYLYFHLLRSWGDVILYLDYTNGASLDLSNLSKAASPAEEVMKQIKEDITASEKGFGSDYSFKYGRYYWSMAATQMLKGEVYLWSGRQMGGGTADYTTAKTALQSIVSNANVSLQDDFSKVFAYNNKDNSEIIFSIRNAKDEYNMWDDRFRQNLVPQQAYMTSTYCNKEGVSFKDLPEGQLNGLIRLQIRYDLYNKAFRDGDTRKDASMTAVYQKQQDGTVKYIAPFCNKYQGVLLDGASQRSFLNDYPIYRYADCLLLLAEAKALLGEDPTAEINQVRERAYGKEFFEANKATLAYPNDKGDFYTDNKYMSGDEDPLEAILKERMREFMFEGKRWYDLRLLGADYVTKRTSAVATRLLWPINESVLTDNPALKQTPGYQN
glycan array binding signal (z-score) [1]: -0.006 | glycan array binding signal (z-score) [2]: 0.046 | glycan array binding signal (z-score) [3]: -0.377 | glycan array binding signal (z-score) [4]: 0.021 | glycan array binding signal (z-score) [5]: -0.265 | glycan array binding signal (z-score) [6]: -0.039 | glycan array binding signal (z-score) [7]: -0.058 | glycan array binding signal (z-score) [8]: -0.237 | glycan array binding signal (z-score) [9]: -0.222 | glycan array binding signal (z-score) [10]: -0.369 | glycan array binding signal (z-score) [11]: -0.334 | glycan array binding signal (z-score) [12]: -0.122 | glycan array binding signal (z-score) [13]: -0.141 | glycan array binding signal (z-score) [14]: -0.135 | glycan array binding signal (z-score) [15]: -0.037 | glycan array binding signal (z-score) [16]: 0.016 | glycan array binding signal (z-score) [17]: -0.23 | glycan array binding signal (z-score) [18]: -0.319 | glycan array binding signal (z-score) [19]: -0.254 | glycan array binding signal (z-score) [20]: 2.69 | glycan array binding signal (z-score) [21]: -0.174 | glycan array binding signal (z-score) [22]: -0.188 | glycan array binding signal (z-score) [23]: -0.001 | glycan array binding signal (z-score) [24]: 0.767 | glycan array binding signal (z-score) [25]: 0.164 | glycan array binding signal (z-score) [26]: -0.015 | glycan array binding signal (z-score) [27]: -0.175 | glycan array binding signal (z-score) [28]: -0.123 | glycan array binding signal (z-score) [29]: 0.892 | glycan array binding signal (z-score) [30]: 1.64
